Test results from the supplement of paper PMC9446081.
Hit rate of the full screen: of about 39,000 compounds, about 220 (0.56%) showed activity. The list shows a part of the results.

tested on: Escherichia coli K-12 BW25113; assay: relative growth (OD600 normalised to plate interquartile mean) (fraction); higher = less growth inhibition, active = 0.2 or less; conditions: 50 µM; LB; incubation time: overnight (16-24 h)
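Note: static incubation at 37 °C against the wild-type strain, values averaged over two biological replicates.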

Row | SMILES | relative growth
1 | CCc1nc2ccc(C(=O)NCc3ccc(OC)cc3)cn2c1N(CC)Cc1cccc(Br)c1 | inactive: 0.998
2 | C[C@@H]1COCC(=O)N1 | inactive: 1.01
3 | C[C@@H]1CN([C@@H](C)CO)C(=O)c2cc(NS(=O)(=O)c3cccs3)ccc2O[C@H]1CN(C)Cc1ccncc1 | inactive: 1.02
4 | C[C@@H]1CN([C@@H](C)CO)C(=O)Cc2cc(NC(=O)CCCN(C)C)ccc2O[C@H]1CN(C)C(=O)Nc1ccccc1 | inactive: 0.764
5 | C[C@H]1CCCCO[C@@H](CN(C)Cc2ccc3c(c2)OCO3)[C@@H](C)CN([C@@H](C)CO)C(=O)c2cc(NC(=O)Nc3ccc(C(F)(F)F)cc3)ccc2O1 | inactive: 0.982
6 | CC(C)C[C@H](NC(=O)[C@@H](Cc1c[nH]c2ccccc12)NC(=O)[C@H](Cc1ccc(O)cc1)NC(=O)[C@H](CO)NC(=O)[C@H](Cc1c[nH]c2ccccc12)NC(=O)[C@H](Cc1cnc[nH]1)NC(=O)[C@@H]1CCC(=O)N1)C(=O)N[C@@H](CCCNC(=N)N)C(=O)N1CCC[C@H]1C(=O)NCC(N)=O | inactive: 1.02
7 | COc1ccc(C#Cc2ccc3c(c2)O[C@@H](CN(C)C(=O)c2ccccn2)[C@@H](C)CN([C@@H](C)CO)S3(=O)=O)cc1 | inactive: 1
8 | C[C@@H]1CN([C@@H](C)CO)C(=O)c2cc(NC(=O)Nc3cccc4ccccc34)ccc2O[C@@H](C)CCCCO[C@@H]1CN(C)C(=O)CCCN(C)C | inactive: 0.991
9 | Cc1ccc(S(=O)(=O)N(C)C[C@H]2Oc3ccc(NC(=O)CCN4CCOCC4)cc3CC(=O)N([C@@H](C)CO)C[C@@H]2C)cc1 | inactive: 0.991
10 | COc1ccc(NC(=O)Nc2ccc3c(c2)C(=O)N([C@@H](C)CO)C[C@@H](C)[C@@H](CN(C)S(=O)(=O)c2c(C)noc2C)OCCCC[C@@H](C)O3)cc1 | inactive: 1.01
11 | COc1ccccc1C(=O)Nc1ccc2c(c1)C(=O)N(C)[C@@H]1CC[C@H](CC(=O)NCCc3ccncc3)O[C@@H]1CO2 | inactive: 1
12 | C[C@H]1Cc2c(N)nn(C)c2NC1=O | inactive: 1
13 | COC(=O)C1CC2=CC(=O)CCC2(C)C23OC2CC2(C)C(CCC24CCC(=O)O4)C13 (stereo not drawn) | inactive: 1.2
14 | COc1ccc(S(=O)(=O)N(C)C[C@@H]2Oc3ccc(NS(=O)(=O)c4cccs4)cc3C(=O)N([C@H](C)CO)C[C@@H]2C)cc1 | inactive: 1
15 | C[C@H](CO)N1C[C@H](C)[C@H](CN(C)S(=O)(=O)c2ccccc2)Oc2ccc(NS(=O)(=O)c3ccc(F)cc3)cc2CC1=O | inactive: 0.999
16 | O=C(O)C[C@H]1CC[C@H]2[C@@H](COC[C@H](O)CN2S(=O)(=O)c2ccc(F)cc2)O1 | inactive: 0.979
17 | Cc1ccc(S(=O)(=O)Nc2ccc3c(c2)C(=O)N([C@@H](C)CO)C[C@@H](C)[C@H](CN(C)C(=O)C2CCCCC2)OCCCC[C@H](C)O3)cc1 | inactive: 1.01
18 | Cc1ccc(S(=O)(=O)N(C)C[C@@H]2Oc3cc(C#Cc4ccccc4)ccc3S(=O)(=O)N([C@@H](C)CO)C[C@H]2C)cc1 | inactive: 1.04
19 | Cc1ccc(S(=O)(=O)Nc2ccc3c(c2)C(=O)N([C@H](C)CO)C[C@H](C)[C@@H](CN(C)Cc2ccc(C(F)(F)F)cc2)O3)cc1 | inactive: 1.01
20 | CCCC(=O)Nc1ccc2c(c1)C(=O)N(C)C[C@@H](OC)[C@H](C)CN(S(=O)(=O)c1cn(C)cn1)[C@@H](C)CO2 | inactive: 0.983

Row | SMILES | relative growth
21 | COc1ccc(S(=O)(=O)Nc2ccc3c(c2)C(=O)N([C@@H](C)CO)C[C@H](C)[C@H](CN(C)C(=O)C2CCCCC2)OCCCC[C@H](C)O3)cc1 | inactive: 1.04
22 | C[C@H](CO)N1C[C@H](C)[C@H](CN(C)Cc2ccc(C(=O)Nc3ccccc3N)cc2)Oc2ccc(NC(=O)Nc3ccc(C(F)(F)F)cc3)cc2CC1=O | inactive: 1.03
23 | CN(C)CCCNC(=O)C[C@H]1C=C[C@H](NC(=O)Cc2cccnc2)[C@@H](CO)O1 | inactive: 1.01
24 | C[C@@H]1CN([C@@H](C)CO)C(=O)Cc2cc(NC(=O)CCN3CCOCC3)ccc2O[C@H]1CN(C)Cc1ccc(C(=O)O)cc1 | inactive: 1.01
25 | Cc1ccccc1S(=O)(=O)N1C[C@@H](O)COC[C@H]2O[C@@H](CC(=O)NCc3ccccc3Cl)CC[C@@H]21 | inactive: 0.987
26 | CN1C(=O)c2cc(NC(=O)c3cnccn3)ccc2OC[C@@H]2O[C@H](CC(=O)N[C@@H]3CCN(Cc4ccccc4)C3)CC[C@@H]21 | inactive: 0.988
27 | Oc1c(Br)cc(Br)c2cccnc12 | inactive: 0.379
28 | COCC(=O)N1C[C@@H](C)[C@@H](OC)CN(C)C(=O)c2ccc(NC(=O)c3ccc(F)cc3)cc2OC[C@@H]1C | inactive: 1.01
29 | C[C@@H]1CCCCO[C@@H](CN(C)CC2CCCCC2)[C@@H](C)CN([C@H](C)CO)C(=O)c2cc(NC(=O)Nc3ccc(F)cc3)ccc2O1 | inactive: 1.03
30 | COc1ccc(NC(=O)Nc2ccc3c(c2)C(=O)N([C@@H](C)CO)C[C@H](C)[C@@H](CN(C)C(=O)Nc2ccccc2)OCCCC[C@H](C)O3)cc1 | inactive: 1.02
31 | C[C@@H](O[C@H]1OCCN(Cc2n[nH]nc2CN(C)C)[C@H]1c1ccc(F)cc1)c1cc(C(F)(F)F)cc(C(F)(F)F)c1 | inactive: 0.916
32 | CCCC#Cc1cnc2c(c1)C(=O)N([C@@H](C)CO)C[C@@H](C)[C@H](CN(C)C(=O)c1ccc3c(c1)OCO3)O2 | inactive: 1.01
33 | O=C(C[C@H]1CC[C@@H]2[C@H](COC[C@@H](O)CN2Cc2cccc(C(F)(F)F)c2)O1)NCCc1ccncc1 | inactive: 1.01
34 | Cc1noc(C)c1NC(=O)N(C)C[C@@H]1Oc2c(NC(=O)Nc3cccc4ccccc34)cccc2C(=O)N([C@@H](C)CO)C[C@H]1C | inactive: 1.01
35 | COc1ccc(NC(=O)Nc2ccc3c(c2)C(=O)N([C@H](C)CO)C[C@H](C)[C@@H](CN(C)C(=O)Nc2ccc(OC)cc2)OCCCC[C@H](C)O3)cc1 | inactive: 1.01
36 | COc1cccc(S(=O)(=O)N(C)C[C@H]2Oc3ncc(C#CCN(C)C)cc3C(=O)N([C@H](C)CO)C[C@H]2C)c1 | inactive: 0.987
37 | C[C@@H]1CCCCO[C@H](CN(C)C)[C@H](C)CN([C@H](C)CO)C(=O)c2cc(NC(=O)CCCN(C)C)ccc2O1 | inactive: 0.974
38 | CN(C)CCCNC(=O)C[C@H]1CC[C@H]2[C@@H](COC[C@@H](O)CN2S(=O)(=O)c2ccc(F)cc2)O1 | inactive: 0.982
39 | C[C@@H]1CN([C@@H](C)CO)C(=O)c2cc(NC(=O)Cc3ccccc3)ccc2O[C@@H]1CN(C)Cc1ccc(Oc2ccccc2)cc1 | inactive: 1
40 | C[C@H]1CN([C@@H](C)CO)C(=O)c2cc(NC(=O)CCCN(C)C)ccc2O[C@H]1CN(C)S(=O)(=O)c1ccc(Cl)cc1 | inactive: 1.02

Row | SMILES | relative growth
41 | C[C@@H]1CCCCO[C@H](CN(C)Cc2ccc(C(=O)O)cc2)[C@@H](C)CN([C@H](C)CO)C(=O)c2cc(NS(=O)(=O)c3ccccc3)ccc2O1 | inactive: 0.959
42 | C[C@@H]1CCCCO[C@H](CN(C)C(=O)C2CCCCC2)[C@H](C)CN([C@@H](C)CO)C(=O)c2cc(NS(=O)(=O)c3ccccc3)ccc2O1 | inactive: 0.977
43 | C[C@@H]1CN([C@@H](C)CO)C(=O)c2cc(NC(=O)NC3CCCCC3)ccc2O[C@@H](C)CCCCO[C@H]1CN(C)Cc1ccc(Cl)c(Cl)c1 | inactive: 1.02
44 | O=C(O)C[C@H]1Nc2ccccc2NC1=O | inactive: 0.999
45 | CN1CCN(C(=O)C[C@H]2C=C[C@H](NC(=O)c3ccc4c(c3)OCO4)[C@@H](CO)O2)CC1 | inactive: 0.97
46 | C[C@H]1CN([C@@H](C)CO)C(=O)c2cc(NC(=O)Nc3ccc(C(F)(F)F)cc3)ccc2O[C@H]1CN(C)Cc1ccc(Cl)c(Cl)c1 | inactive: 1
47 | Cc1cc(C(=O)Nc2cccc3c2O[C@H](CN(C)C(=O)Nc2ccc4c(c2)OCO4)[C@H](C)CN([C@@H](C)CO)C3=O)n(C)n1 | inactive: 0.998
48 | C[C@H]1CN([C@@H](C)CO)C(=O)c2c(c3ccccc3n2C)-c2ccccc2CO[C@H]1CN(C)S(=O)(=O)c1cn(C)cn1 | inactive: 0.991
49 | Cc1noc(C)c1NC(=O)N(C)C[C@H]1Oc2ccc(NS(C)(=O)=O)cc2CC(=O)N([C@@H](C)CO)C[C@H]1C | inactive: 0.999
50 | Cc1noc(C)c1NC(=O)N(C)C[C@H]1OCCCC[C@@H](C)Oc2ccc(NC(=O)CCC(F)(F)F)cc2C(=O)N([C@H](C)CO)C[C@@H]1C | inactive: 0.987
51 | COc1ccc(NC(=O)Nc2ccc3c(c2)CC(=O)N([C@H](C)CO)C[C@@H](C)[C@@H](CN(C)S(=O)(=O)c2cn(C)cn2)O3)cc1 | inactive: 1.01
52 | COCC(=O)Nc1ccc2c(c1)C(=O)N(C)[C@@H]1CC[C@@H](CC(=O)NCc3ccccc3Cl)O[C@@H]1CO2 | inactive: 1.01
53 | COCC#Cc1cnc2c(c1)C(=O)N([C@@H](C)CO)C[C@H](C)[C@H](CN(C)C(=O)c1cnccn1)O2 | inactive: 0.999
54 | CN1CCN(c2cc3c(cc2F)c(=O)c(C(=O)O)cn3-c2ccc(F)cc2)CC1.Cl | active: 0.0477
55 | CCCC#Cc1cnc2c(c1)C(=O)N([C@@H](C)CO)C[C@H](C)[C@@H](CN(C)S(=O)(=O)c1cn(C)cn1)O2 | inactive: 0.993
56 | NCc1cnco1 | inactive: 0.976
57 | COc1ccc(-c2coc3cc(O)ccc3c2=O)cc1 | inactive: 1.05
58 | CO[C@H]1CN(C)C(=O)c2ccc(NC(=O)Nc3cccc(Cl)c3)cc2OC[C@@H](C)N(C(=O)Nc2c(C)noc2C)C[C@H]1C | inactive: 0.977
